Reference: PubChem BioAssay AID1240 (Sanford-Burnham Center for Chemical Genomics, 2008)
Screen size: about 50,000 compounds; about 800 (1.6%) showed an effect of 50% or more. This is one part of the list.

molecular target: Bcl-2-like protein 10 (Homo sapiens) (UniProt Q9HD36); assay: Phenotype converters, Bcl-B/TR3 peptide binding displacement, primary biochemical FP (AID 1240); conditions: GST-Bcl-B / FITC-TR3 peptide fluorescence polarization; stronger effect = higher value; compound at 3.75 mg/L;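 note: 0% = Bcl-B with tracer peptide and DMSO and 100% = tracer peptide lacking Bcl-B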
Sequence of UniProt Q9HD36 (Q9HD36 whole entry, looked up): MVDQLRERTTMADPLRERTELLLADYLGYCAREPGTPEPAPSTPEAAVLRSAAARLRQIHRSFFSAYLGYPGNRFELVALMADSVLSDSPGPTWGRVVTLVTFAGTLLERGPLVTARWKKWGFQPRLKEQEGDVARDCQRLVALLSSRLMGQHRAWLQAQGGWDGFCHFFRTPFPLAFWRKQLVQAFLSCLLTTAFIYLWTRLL

Compound | displacement [%]
COC(=O)C1=C(C)NC2=C(C(=O)c3ccccc32)C1c1cc2c(cc1Br)OCO2 (configuration not stated) | 13.6
Nc1nonc1C(=O)N=Nc1c(O)[nH]c2ccccc12 | -8.4
CCC(=O)c1ccccc1NN1c2ccccc2C(=O)C1(C)OC (configuration not stated) | -0.9
COc1ccc(C2=NN(c3ccc(C=O)cc3)C(c3ccc(F)cc3)C2)cc1 (configuration not stated) | 10
Cn1c(NC(=O)c2ccco2)cc(=O)n(C)c1=O | -0.8
CCOC(=O)C(C(=O)Nc1ccc(C)cc1)C1CCCCC1 (configuration not stated) | 2.5
Cc1ccc(C(C)C)c(OCC(=O)Nc2ccc(C)cc2[N+](=O)[O-])c1 | 1.4
COC(=O)CNC(=O)C1COc2ccccc2O1 (configuration not stated) | 11.4
CCOc1ccc(NC(=O)CN(c2cccc(Br)c2)S(=O)(=O)c2ccccc2)cc1 | 2.4
O=C(Nc1ccccc1-c1nc2ccccc2[nH]1)c1ccc(Cl)cc1Cl | -11.8
O=[N+]([O-])c1ccc(/C=N/C(=S)NNc2ccccc2)o1 | -4.7
O=C1NC2NC(=O)N(C3CCCCC3)C2N1 (configuration not stated) | 0.6
O=C(CSc1nc2ccccc2c(=O)[nH]1)c1ccccc1 | 12
Cc1cc(Cl)ccc1OCC(=O)NNC(=O)c1ccc2ccccc2c1O | -16.8
C=CCOc1ccc(/C=C/C(=O)c2ccc(F)cc2)cc1 | -10.8
O=C(/C=C/c1ccco1)Nc1ccccc1 | 12.4

Compound | displacement [%]
Cc1c(C)c(C)c(C(=O)Nc2ccc(Cl)c(C(N)=O)c2)c(C)c1C | -7.6
O=C1S/C(=C/c2ccccc2)C(=O)N1CNc1ccccc1F | -2.9
Cc1ccc2nsnc2c1NC(=O)c1ccccc1I | 15.3
Cc1ccc(C(=O)N2CCCc3ccccc32)cc1 | -8
CCOC(=O)c1c(NC(=O)c2ccccc2OCC)sc(C)c1C | 3.6
CCCCCn1c(/N=C/c2c(O)ccc3oc4c(c23)CCCC4)nc2ccccc21 | 10.4
Cc1ccccc1-n1c(-c2ccccc2)nc2c(cnn2-c2ccccc2)c1=O | 4.6
Cc1ccc2c(nc3s/c(=C\c4ccc(Cl)cc4Cl)c(=O)n32)c1C | -22.3
Clc1cccc(/C=N/Nc2cc(N3CCOCC3)ncn2)c1 | -7.7
O=C(Nc1cc(Cl)cc(Cl)c1)c1ccc(I)cc1 | 13.6
O=S(=O)(c1ccc(Br)c2ccccc12)N1CCOCC1 | 13.8
COc1ccc(NC(=O)CSc2nc(C)cc(=O)[nH]2)cc1 | -2.3
Cc1ccc(NC(=O)C(=O)NCCCOC(C)C)c(C)c1 | 10.7
O=C(O)CCCN1C(=O)/C(=C/c2cccc(Br)c2)SC1=S | 91.2
Cc1ccc(-c2nc3cc(Cl)ccc3o2)cc1NC(=O)c1ccc(Br)o1 | 3.2
O=C(c1ccc(Cl)c(Cl)c1)N1CCN(c2ccccc2)CC1 | 1.9
